Assay results reported in US20020128438A1, “DNA cassette for the production of secretable recombinant trimeric TRAIL proteins, tetracycline/ doxycycline-inducible adeno-associated virus vector, their combination and use in gene therapy” (priority 2000, published 2002).

Tested on: various cancer cell lines
Conditions: TRAIL protein 100 ng/ml plus ActD 100 ng/ml, 12 hours

recombinant human TRAIL(114-281) protein: recombinant human TRAIL amino acid 114-281 protein
apoptotic activity of TRAIL protein in the presence of ActD: significantly enhanced | killing of target cells with the aid of ActD, regardless of intrinsic resistance to TRAIL alone: killed most target cells tested
